# Laboratory results: the supplement of paper PMC8007513
# Where a name gives a salt, the structure may show the parent alone. ± gives the standard error. The campaign covered roughly 1,300 compounds. About 130 (10%) showed an effect of 50% or more. The list shows a part of the results, in another mix than the full data.
# System: Trichoderma virens ATCC 9645
# Experiment: growth yield (OD600) with compound + IPBC relative to untreated control; higher = less growth inhibition
# Conditions: compound concentration: 100 uM, IPBC concentration: 200 ng/ml
# Procedure, shortened: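 For each 96-well plate, 100 μl aliquots were prepared with Trichoderma virens ATCC 9645 spores suspended at 15,000 spores ml^−1 in potato dextrose broth. The spores had been harvested from potato dextrose agar plates after 7 days. Library compounds were present at 100 μM final, some wells also receiving a biocide at 200 ng ml^−1, and plates were grown at 30 °C with OD600 read on a BioTek EL800 at 40 h and 72 h. Reported growth, relative to the control lacking both agents, is the mean of duplicate screens.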
SMILES,growth yield (40 h),growth yield (72 h)
CC(CN(C)C)CN1c2ccccc2Sc2ccccc21 (stereo not drawn) [Trimeprazine tartrate] + CCCCNC(=O)OCC#CI [3-iodo-2-propynyl butylcarbamate (IPBC)],71.5 ± 3.8%,92 ± 3.9%
CC(=O)N(CC(O)CN(C(C)=O)c1c(I)c(C(=O)NCC(O)CO)c(I)c(C(=O)NCC(O)CO)c1I)c1c(I)c(C(=O)NCC(O)CO)c(I)c(C(=O)NCC(O)CO)c1I (stereo not drawn) [Iodixanol] + CCCCNC(=O)OCC#CI [3-iodo-2-propynyl butylcarbamate (IPBC)],99.6 ± 15%,98.4 ± 10%
c1ccc(CN(CC2=NCCN2)c2ccccc2)cc1 [Antazoline hydrochloride] + CCCCNC(=O)OCC#CI [3-iodo-2-propynyl butylcarbamate (IPBC)],82.76 ± 0.79%,94.28 ± 0.94%
CN(C)CC/C=C1/c2ccccc2COc2ccc(CC(=O)O)cc21 [Olopatadine hydrochloride] + CCCCNC(=O)OCC#CI [3-iodo-2-propynyl butylcarbamate (IPBC)],86.1 ± 6.7%,91.5 ± 4.2%
C=CCSCC1Nc2cc(Cl)c(S(N)(=O)=O)cc2S(=O)(=O)N1 (stereo not drawn) [Althiazide] + CCCCNC(=O)OCC#CI [3-iodo-2-propynyl butylcarbamate (IPBC)],98.16 ± 0.32%,96.7 ± 0.21%
"c1ccc(CNc2ncnc3nc[nH]c23)cc1 [Aminopurine, 6-benzyl] + CCCCNC(=O)OCC#CI [3-iodo-2-propynyl butylcarbamate (IPBC)]",89 ± 1.9%,94.08 ± 0.32%
CN1Cc2c(N)cccc2C(c2ccccc2)C1 (stereo not drawn) [Nomifensine maleate] + CCCCNC(=O)OCC#CI [3-iodo-2-propynyl butylcarbamate (IPBC)],90.9 ± 5.1%,98.4 ± 3.6%
CC(C)(O)c1ccccc1CC[C@@H](SCC1(CC(=O)O)CC1)c1cccc(/C=C/c2ccc3ccc(Cl)cc3n2)c1 [Montelukast] + CCCCNC(=O)OCC#CI [3-iodo-2-propynyl butylcarbamate (IPBC)],131 ± 5.9%,120 ± 6%
CCOC(=O)[C@@](C)(N)Cc1ccc(O)c(O)c1 [Methyldopate hydrochloride] + CCCCNC(=O)OCC#CI [3-iodo-2-propynyl butylcarbamate (IPBC)],110 ± 6%,106 ± 6.2%
O=C(c1ccccc1)c1ccc2n1CCC2C(=O)O (stereo not drawn) [Ketorolac tromethamine] + CCCCNC(=O)OCC#CI [3-iodo-2-propynyl butylcarbamate (IPBC)],78.8 ± 3.2%,86 ± 2.9%
COc1c(N2CCNC(C)C2)c(F)cc2c(=O)c(C(=O)O)cn(C3CC3)c12 (stereo not drawn) [Gatifloxacin] + CCCCNC(=O)OCC#CI [3-iodo-2-propynyl butylcarbamate (IPBC)],106 ± 4.5%,101 ± 4.3%
C[C@]12CC[C@@H](O)C[C@H]1CC[C@@H]1[C@@H]2CC[C@]2(C)C(=O)CC[C@@H]12 [3-alpha-Hydroxy-5-beta-androstan-17-one] + CCCCNC(=O)OCC#CI [3-iodo-2-propynyl butylcarbamate (IPBC)],72.4 ± 0.95%,84 ± 1.1%
C#CCN(C)[C@H](C)Cc1ccccc1 [Selegiline hydrochloride] + CCCCNC(=O)OCC#CI [3-iodo-2-propynyl butylcarbamate (IPBC)],92.3 ± 11%,93.8 ± 6.5%
CO/N=C(\C(=O)N[C@@H]1C(=O)N2C(C(=O)OC(C)OC(C)=O)=C(COC(N)=O)CS[C@H]12)c1ccco1 (stereo partly drawn) [Cefuroxime axetil] + CCCCNC(=O)OCC#CI [3-iodo-2-propynyl butylcarbamate (IPBC)],92.1 ± 7.3%,92.2 ± 2.4%
COc1ccccc1OCC(O)COC(N)=O (stereo not drawn) [Methocarbamol] + CCCCNC(=O)OCC#CI [3-iodo-2-propynyl butylcarbamate (IPBC)],85.5 ± 2.9%,95.3 ± 1.8%
Cc1cc(N)c2ccccc2[n+]1CCCCCCCCCC[n+]1c(C)cc(N)c2ccccc21 [Dequalinium dichloride] + CCCCNC(=O)OCC#CI [3-iodo-2-propynyl butylcarbamate (IPBC)],3.81%,2.94%
Nc1ccn([C@@H]2CS[C@H](CO)O2)c(=O)n1 [Lamivudine] + CCCCNC(=O)OCC#CI [3-iodo-2-propynyl butylcarbamate (IPBC)],82.1 ± 3%,90.9 ± 4.1%
CN(C)C(=O)Oc1ccc[n+](C)c1 [Pyridostigmine iodide] + CCCCNC(=O)OCC#CI [3-iodo-2-propynyl butylcarbamate (IPBC)],87.2 ± 1.8%,90.4 ± 2.5%
NC1CCN(c2nc3c(cc2F)c(=O)c(C(=O)O)cn3-c2ccc(F)cc2F)C1 (stereo not drawn) [Tosufloxacin hydrochloride] + CCCCNC(=O)OCC#CI [3-iodo-2-propynyl butylcarbamate (IPBC)],80.7 ± 5.4%,86.5 ± 4.3%
CN1CCN2c3ncccc3Cc3ccccc3C2C1 (stereo not drawn) [Mirtazapine] + CCCCNC(=O)OCC#CI [3-iodo-2-propynyl butylcarbamate (IPBC)],99.1 ± 4.5%,107 ± 3.6%

SMILES,growth yield (40 h),growth yield (72 h)
COC(=O)N/N=C/c1c[n+]([O-])c2ccccc2[n+]1[O-] [Carbadox] + CCCCNC(=O)OCC#CI [3-iodo-2-propynyl butylcarbamate (IPBC)],80.7 ± 1.3%,87.7 ± 1.5%
CN(C(=O)CN(CCO)CC(=O)N(C)C(C)(C)Cc1ccccc1)C(C)(C)Cc1ccccc1 [Oxethazaine] + CCCCNC(=O)OCC#CI [3-iodo-2-propynyl butylcarbamate (IPBC)],50.5 ± 2.2%,90.8 ± 4.6%
Cc1cc(C)nc(NS(=O)(=O)c2ccc(N)cc2)n1 [Sulfamethazine sodium salt] + CCCCNC(=O)OCC#CI [3-iodo-2-propynyl butylcarbamate (IPBC)],100 ± 14%,98.5 ± 9.1%
COc1cc(NS(=O)(=O)c2ccc(N)cc2)ncn1 [Sulfamonomethoxine] + CCCCNC(=O)OCC#CI [3-iodo-2-propynyl butylcarbamate (IPBC)],96.1 ± 14%,101 ± 11%
CC1(C)O[C@@H]2C[C@H]3[C@@H]4C[C@H](F)C5=CC(=O)C=C[C@]5(C)[C@@]4(F)[C@@H](O)C[C@]3(C)[C@]2(C(=O)CO)O1 [Fluocinolone acetonide] + CCCCNC(=O)OCC#CI [3-iodo-2-propynyl butylcarbamate (IPBC)],93.7 ± 6.3%,96.4 ± 6.8%
CC(C(O)c1ccc(O)cc1)N1CCC(Cc2ccccc2)CC1 (stereo not drawn) [Ifenprodil tartrate] + CCCCNC(=O)OCC#CI [3-iodo-2-propynyl butylcarbamate (IPBC)],92 ± 7.5%,96.8 ± 6.2%
CC#C[C@]1(O)CC[C@H]2[C@@H]3CCC4=CC(=O)CCC4=C3[C@@H](c3ccc(N(C)C)cc3)C[C@@]21C [Mifepristone] + CCCCNC(=O)OCC#CI [3-iodo-2-propynyl butylcarbamate (IPBC)],104 ± 5.4%,110 ± 2.3%
CCCCCCNC(=O)n1cc(F)c(=O)[nH]c1=O [Carmofur] + CCCCNC(=O)OCC#CI [3-iodo-2-propynyl butylcarbamate (IPBC)],21.9 ± 0.95%,31.4 ± 0.32%
CCN(CC)C(=O)Nc1ccc(OCC(O)CNC(C)(C)C)c(C(C)=O)c1 (stereo not drawn) [Celiprolol hydrochloride] + CCCCNC(=O)OCC#CI [3-iodo-2-propynyl butylcarbamate (IPBC)],87 ± 5.7%,92.2 ± 3.9%
CCCCC1C(=O)N(c2ccccc2)N(c2ccc(O)cc2)C1=O (stereo not drawn) [Oxyphenbutazone] + CCCCNC(=O)OCC#CI [3-iodo-2-propynyl butylcarbamate (IPBC)],91.3 ± 19%,103 ± 7.9%
N[C@H]1CONC1=O [(S)-(-)-Cycloserine] + CCCCNC(=O)OCC#CI [3-iodo-2-propynyl butylcarbamate (IPBC)],88%,88.7 ± 1.1%
CN1[C@@H]2C[C@@H](OC(=O)[C@H](CO)c3ccccc3)C[C@H]1[C@@H]1O[C@@H]12 [Scopolamine hydrochloride] + CCCCNC(=O)OCC#CI [3-iodo-2-propynyl butylcarbamate (IPBC)],94.4 ± 7.9%,94.1 ± 3.5%
COc1cc2nc(N3CCN(C(=O)C4COc5ccccc5O4)CC3)nc(N)c2cc1OC (stereo not drawn) [Doxazosin mesylate] + CCCCNC(=O)OCC#CI [3-iodo-2-propynyl butylcarbamate (IPBC)],62.6 ± 18%,90.1 ± 15%
C#C[C@]1(O)CC[C@H]2[C@@H]3CCC4=CC(=O)CCC4=C3C=C[C@@]21CC [Gestrinone] + CCCCNC(=O)OCC#CI [3-iodo-2-propynyl butylcarbamate (IPBC)],100 ± 2.4%,95.54 ± 0.32%
CCN(CCCCOC(=O)c1ccc(OC)c(OC)c1)C(C)Cc1ccc(OC)cc1 (stereo not drawn) [Mebeverine hydrochloride] + CCCCNC(=O)OCC#CI [3-iodo-2-propynyl butylcarbamate (IPBC)],80.7 ± 3.8%,93.3 ± 1.9%
CCN(CC)C(=O)C1(c2ccccc2)CC1CN (stereo not drawn) [Milnacipran hydrochloride] + CCCCNC(=O)OCC#CI [3-iodo-2-propynyl butylcarbamate (IPBC)],92.9 ± 6.8%,91.7 ± 4.2%
Cc1cc(C(C)(C)C)cc(C)c1CC1=NCCN1 [Xylometazoline hydrochloride] + CCCCNC(=O)OCC#CI [3-iodo-2-propynyl butylcarbamate (IPBC)],86.6 ± 3.6%,98.2 ± 3.6%
CCN(CC)CCOCCOC(=O)C1(c2ccccc2)CCCC1 [Carbetapentane citrate] + CCCCNC(=O)OCC#CI [3-iodo-2-propynyl butylcarbamate (IPBC)],74.8 ± 1.8%,88.94 ± 0.42%
C=CCOc1ccccc1OCC(O)CNC(C)C (stereo not drawn) [Oxprenolol hydrochloride] + CCCCNC(=O)OCC#CI [3-iodo-2-propynyl butylcarbamate (IPBC)],92 ± 6.8%,93.8 ± 4.4%
